The subject of this experiment is primary human hepatic stellate cells (donor 1). As to the kind of experiment: scaled lipid accumulation score (0 = DMSO-like, 1 = nortriptyline-like); higher = stronger HSC inactivation (lipid re-accumulation), active = hit call of the paper. As to conditions: 48 h.
The mark [1] stands for this setting: library stock concentration: 10 mM.
Setting [2] is: library stock concentration: 3.33 mM.

Values joined by “and” are separate entries in the source; they are usually repeats but may differ in a detail not shown here. Identical values can stand only once. Counter-ions that a name gives are not always drawn. In all, about 5,800 compounds went through this assay and about 620 (11%) showed activity.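 How the source made its calls: active = score above a cut-off or among the top three wells of a plate; in these data no inactive exceeds 0.85.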 This is a selection; strong and weak results do not stand in their true shares. Some results are limits rather than exact numbers.

On to `CCC1(c2ccccc2)C(=O)NCNC1=O`, for which the “scaled lipid accumulation score” value under setting [1] was inactive: ≤ 0.

Turning to `CCC1(c2ccccc2)C(=O)NCNC1=O` [Primidone], the “scaled lipid accumulation score” value is inactive: ≤ 0. Further, the “scaled lipid accumulation score” value under setting [2] is inactive: ≤ 0. Besides, under “library stock concentration: 9.2 mM”, the “scaled lipid accumulation score” value was inactive: ≤ 0. Moreover, the “scaled lipid accumulation score” value under setting [1] was inactive: ≤ 0.

As for `CCn1cc(-c2ccnc3[nH]c(-c4cccc(CN(C)C)c4)cc23)c(-c2ccc(NC(=O)N(C)C)cc2)n1`, the “scaled lipid accumulation score” value under setting [1] was active: 0.863.

Turning to `COC(=O)N[C@H](C(=O)N1CCC[C@H]1c1ncc(-c2ccc(-c3ccc(-c4cnc([C@@H]5CCCN5C(=O)[C@@H](NC(=O)OC)C(C)C)[nH]4)cc3)cc2)[nH]1)C(C)C`, the “scaled lipid accumulation score” value under setting [1] is active: 1.04.

Regarding `N#Cc1ccc2c(c1)N(CCCN1CCC(O)CC1)c1ccccc1S2` [Periciazine], under setting [1], the “scaled lipid accumulation score” value is inactive: 0.107.

Consider `COc1cc2nccc(Oc3ccc(NC(=O)Nc4ccc(F)cc4F)c(F)c3)c2cc1OC`, for which, under setting [1], the “scaled lipid accumulation score” value was active: 1.05.

For `COC(=O)C1=C(C)NC(C)=C(C(=O)OC(C)(C)CN(C)CCC(c2ccccc2)c2ccccc2)C1c1cccc([N+](=O)[O-])c1` (stereo unspecified) [Lercanidipine hydrochloride hemihydrate], the “scaled lipid accumulation score” value under setting [1] was inactive: 0.321.

For the compound `C[C@]12CCC(=O)C=C1CC[C@@H]1[C@@H]2CC[C@@]2(C)[C@H]1CC[C@]2(O)C(=O)CO` [Cortexolone], the “scaled lipid accumulation score” value under setting [1] was inactive: ≤ 0.

For the compound `C[C@]12CCC(=O)C=C1CC[C@@H]1[C@@H]2CC[C@@]2(C)[C@H]1CC[C@]2(O)C(=O)CO` [Reichstein?s substance?S], under setting [1], the “scaled lipid accumulation score” value was inactive: ≤ 0.

Take `CN1CC(O)C(O)C(O)C1CO` (stereo unspecified) [N-Methyl-1-deoxynojirimycin]: the “scaled lipid accumulation score” value under setting [1] is inactive: ≤ -0.07.

Take `CCCCn1c2ccc(O)cc2c2c3c(c(-c4ccccc4Cl)cc21)C(=O)NC3=O` [Wee1 Inhibitor II]: the “scaled lipid accumulation score” value under setting [2] was inactive: ≤ 0.

Regarding `COc1ccc(Cl)cc1NC(=O)Nc1cc(C)nc2ccccc12`, the “scaled lipid accumulation score” value was inactive: 0.097 under setting [2] and inactive: 0.391 under setting [1].

For the compound `COc1ccc(Cl)cc1NC(=O)Nc1cc(C)nc2ccccc12` [IGF-1R Inhibitor II], under setting [2], the “scaled lipid accumulation score” value was inactive: 0.188.

Regarding `COc1ccccc1N1CCN(CCCNc2c(C)c(=O)n(C)c(=O)n2C)CC1` [Urapidil, 5-Methyl-], the “scaled lipid accumulation score” value under setting [1] was inactive: ≤ 0.

`O=C1CC[C@@H](C(=O)N2CSC[C@H]2C(=O)O)N1`: under setting [1], the “scaled lipid accumulation score” value is inactive: ≤ 0.

Turning to `O=C1CC[C@@H](C(=O)N2CSC[C@H]2C(=O)O)N1` [Pidotimod], the “scaled lipid accumulation score” value under setting [2] is inactive: 0.045 and the “scaled lipid accumulation score” value under setting [1] was inactive: ≤ 0.

On to `O=C(Nc1ncc(SCCN2CCCC2)s1)[C@]1(c2ccc(S(=O)(=O)C3CC3)cc2)C[C@@H]1C1CCCCC1`, for which the “scaled lipid accumulation score” value under setting [2] is active: 1.12.

In the case of `c1ccc(-c2ccc(C(c3ccccc3)n3ccnc3)cc2)cc1` (stereo unspecified) [Bifonazole], the “scaled lipid accumulation score” value under setting [2] was inactive: ≤ 0; the “scaled lipid accumulation score” value (library stock concentration: 6.4 mM) is inactive: ≤ 0 and inactive: 0.162; the “scaled lipid accumulation score” value under setting [1] was inactive: 0.138 and inactive: ≤ -0.027.

For `c1ccc(-c2ccc(C(c3ccccc3)n3ccnc3)cc2)cc1` (stereo unspecified), the “scaled lipid accumulation score” value under setting [1] is inactive: ≤ 0.

In the case of `Oc1c(Cl)cc(Cl)c2cccnc12` [Chloroxine], the “scaled lipid accumulation score” value is, setting by setting: under setting [2], inactive: 0.008; (library stock concentration: 9.3 mM) inactive: ≤ 0; under setting [1], inactive: 0.067 and inactive: ≤ 0.

With `CCOc1nc2cccc(C(=O)O)c2n1Cc1ccc(-c2ccccc2-c2nnn[nH]2)cc1` [Candesartan], the “scaled lipid accumulation score” value is inactive: 0.024 under setting [2], inactive: ≤ -0.006 (library stock concentration: 4.5 mM) and inactive: ≤ 0 under setting [1].

As to `CCN(CC)CCCCNc1ncc2cc(-c3c(Cl)cccc3Cl)c(NC(=O)NC(C)(C)C)nc2n1`, the “scaled lipid accumulation score” value under setting [1] is active: 1.41.

In the case of `C[C@@](Cc1ccc(O)c(O)c1)(NN)C(=O)O`, under setting [1], the “scaled lipid accumulation score” value is inactive: 0.021.

For the compound `C[C@@](Cc1ccc(O)c(O)c1)(NN)C(=O)O` [Carbidopa], the “scaled lipid accumulation score” value is, setting by setting: under setting [2], inactive: ≤ 0; (library stock concentration: 8.8 mM) inactive: 0.006 and inactive: ≤ 0; under setting [1], inactive: ≤ 0.

For `O=C[C@@H]1CCCN1C(=O)[C@@H]1CCCN1C(=O)OCc1ccccc1` [Z-prolyl-prolinal], the “scaled lipid accumulation score” value (library stock concentration: 15.1 mM) is inactive: 0.107.

On to `CC1CCN(CC[C@H]2CCCN2S(=O)(=O)c2cccc(O)c2)CC1`, for which the “scaled lipid accumulation score” value was inactive: ≤ 0 under setting [2]; inactive: ≤ 0 and inactive: 0.019 under setting [1].

As for `Nc1ncnc2c1ncn2[C@@H]1O[C@H](CO)[C@@H](O)[C@@H]1O` [Vidarabine], the “scaled lipid accumulation score” value was inactive: ≤ 0. The “scaled lipid accumulation score” value under setting [2] is inactive: ≤ 0. For the same compound, the “scaled lipid accumulation score” value (library stock concentration: 7.5 mM) was inactive: ≤ 0. Also, under setting [1], the “scaled lipid accumulation score” value was inactive: ≤ 0.

For `C[C@H]1C[C@H]2[C@@H]3CCC4=CC(=O)C=C[C@]4(C)[C@@]3(F)[C@@H](O)C[C@]2(C)[C@@]1(O)C(=O)COP(=O)(O)O`, under setting [1], the “scaled lipid accumulation score” value was inactive: ≤ 0.

As for `CCCCC(CC)COC(=O)CC(C(=O)OCC(CC)CCCC)S(=O)(=O)O` (stereo unspecified), the “scaled lipid accumulation score” value under setting [1] is inactive: ≤ 0.

With `Cc1[nH]cnc1CN1CCc2c(c3ccccc3n2C)C1=O`, the “scaled lipid accumulation score” value under setting [1] is inactive: ≤ 0.

With `O=C1NC(=O)c2cc(Nc3ccccc3)c(Nc3ccccc3)cc21`, the “scaled lipid accumulation score” value under setting [1] was inactive: 0.353 and inactive: 0.003.

For `CC(C)c1ccccc1Cc1cc(C(=O)Nc2ccc(S(=O)(=O)c3ccccc3C(C)(C)C)cc2)c(O)c(O)c1O`, the “scaled lipid accumulation score” value runs as follows: under setting [2], inactive: ≤ 0; under setting [1], inactive: ≤ 0.

As for `CC(=O)O[C@@H]1C[C@H]2C(C)(C)C(=O)C=C[C@]2(C)[C@H]2CC[C@@]3(C)[C@H](c4ccoc4)OC(=O)[C@H]4O[C@]43[C@@]21C` [Gedunin], the “scaled lipid accumulation score” value under setting [1] is inactive: 0.146 and inactive: 0.214.

On to `O=C(Nc1ccc2[nH]nc(-c3ccncc3)c2c1)[C@@H]1CCN(CC(=O)N2CCN(c3ccc(-c4ncccn4)cc3)CC2)C1`, for which the “scaled lipid accumulation score” value under setting [1] is active: 0.909.

Turning to `O=C(O)CCc1ccc(NCc2cccc(Oc3ccccc3)c2)cc1`, the “scaled lipid accumulation score” value is inactive: ≤ 0 (library stock concentration: 1 mM); inactive: ≤ -0.009 under setting [2]; inactive: ≤ 0 and inactive: ≤ -0.07 and inactive: ≤ -0.001 under setting [1].

As to `Cc1cc2nc3c(=O)[nH]c(=O)nc-3n(C[C@H](O)[C@H](O)[C@H](O)CO)c2cc1C` [Riboflavin], the “scaled lipid accumulation score” value is inactive: ≤ 0 (library stock concentration: 5.3 mM) and inactive: ≤ -0.027 under setting [1].

In the case of `Cc1cc2nc3c(=O)[nH]c(=O)nc-3n(C[C@H](O)[C@H](O)[C@H](O)CO)c2cc1C` [Riboflavine], the “scaled lipid accumulation score” value is inactive: 0.134.

`CCCOc1ccc2[nH]c(NC(=O)OC)nc2c1` [Oxibendazole]: the “scaled lipid accumulation score” value by setting is: (library stock concentration: 8 mM) inactive: 0.055 and inactive: 0.012; under setting [1], inactive: ≤ -0.024.

Regarding `CC(C)(CO)Cc1cc(C(C)(C)C)c(O)c(C(C)(C)C)c1`, under setting [1], the “scaled lipid accumulation score” value was active: 0.861.

For the origin of these results see the supplement of paper PMC9135407.
